# Among all 260,000 compounds or so, about 890 (0.34%) were called active. Inconclusive results, whose numbers are uncertain, are shown with a selection of clear calls. Calls come from the whole dose curve; as a rule, active = well fitted activation curve with a large enough effect; inconclusive = small, poorly fitted or top-dose-only effect; inactive = no such curve, though single readings can be large or run the other way. Potencies of inconclusive entries are left out as doubtful fits.
# Molecular target: Pyruvate kinase PKM (Homo sapiens) (UniProt P14618)
# UniProt P14618, sequence (P14618 whole entry, looked up, canonical isoform): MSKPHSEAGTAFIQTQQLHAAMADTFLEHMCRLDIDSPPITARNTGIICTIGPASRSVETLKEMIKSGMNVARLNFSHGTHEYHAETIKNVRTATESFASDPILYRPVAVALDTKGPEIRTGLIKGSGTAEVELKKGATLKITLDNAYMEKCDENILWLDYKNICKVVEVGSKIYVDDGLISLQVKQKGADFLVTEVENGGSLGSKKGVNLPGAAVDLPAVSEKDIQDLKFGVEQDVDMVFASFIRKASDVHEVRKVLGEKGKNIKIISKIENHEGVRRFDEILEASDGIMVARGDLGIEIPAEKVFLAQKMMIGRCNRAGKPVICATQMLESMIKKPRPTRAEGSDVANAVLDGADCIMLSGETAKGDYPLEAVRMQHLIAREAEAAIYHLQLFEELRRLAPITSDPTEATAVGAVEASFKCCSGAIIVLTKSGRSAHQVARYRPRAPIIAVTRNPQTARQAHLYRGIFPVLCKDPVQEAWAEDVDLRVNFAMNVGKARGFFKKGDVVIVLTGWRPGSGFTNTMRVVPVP
# Assay: qHTS Assay for Activators of Human Muscle isoform 2 Pyruvate Kinase; note: nearly all actives have a fitted effect of over 55% in size
# Settings: purified PKM2, Kinase-Glo ATP luminescence; Potency: activation; activation: at 57.5 µM (top of the series), 0% is enzyme alone, no compound
# Outline: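 Purified hPK-M2 (>95% pure) converted ADP (0.1 mM final) to ATP with 0.5 mM PEP in 50 mM imidazole pH7.2, KCl, MgCl2, Tween 20, BSA; 1 h at room temperature. ATP detected by Kinase-Glo luminescence.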
# % is set by controls: 0 for no effect and ±100 for the full control effect; potency is the fitted concentration of half-maximal effect; tags give direction and shape of the fitted curve.
Structure (SMILES),activation,Potency
Cc1cc(SCC(=O)N/N=C/c2ccc(O)c(O)c2O)c(C)cc1Br,inactive: 13.3%,–
O=C(Nc1ccc(-c2cnco2)cc1)c1ccc(Cl)cc1,inactive: -32.9%,–
CCC(COC)NCc1cn(-c2ccc(OC)cc2)nc1-c1cccc(F)c1 (stereo not drawn),inactive: -2.37%,–
CCC(=O)OCCNc1cc(Sc2nc3ccccc3s2)c2nonc2c1[N+](=O)[O-],–,"inconclusive [rising, full curve, poor fit]"
CNC(=S)NC12CC3CC(CC(C3)C1)C2,inactive: -6.13%,–
COc1ccccc1CNC(=O)C1CCN(S(=O)(=O)c2ccc3c(c2)OCCCO3)CC1,–,"inconclusive [rising, partial curve]"
O=C(NCCN1C(=O)S/C(=C\c2cccs2)C1=O)c1ccc(=O)[nH]c1,–,active: 4.47 µM
N#C/C(=C/Nc1ccccc1C(=O)O)C(N)=O,–,"inconclusive [rising, single point]"
Cn1c(=O)oc2cc(S(=O)(=O)NCc3ccncc3)ccc21,–,"inconclusive [rising, partial curve]"
CC(NC(=O)c1ccc(OC2CCN(Cc3ccccn3)CC2)cc1)c1ccccc1 (stereo not drawn),–,"inconclusive [rising, single point]"
COc1ccc(N2C(=O)CC(Sc3ccccc3C(=O)O)C2=O)c([N+](=O)[O-])c1 (stereo not drawn),–,active: 20 µM
Cc1ccc(S(=O)(=O)N2CCN(C(=O)Cc3ccccc3)CC2)cc1,–,"inconclusive [rising, partial curve]"
Cc1cc(NC(=O)CSc2ncnc3ccccc23)no1,–,"inconclusive [rising, partial curve]"
CCCCCOP(=O)(OCCCCC)C1(NS(=O)(=O)c2ccccc2)C=CC(=O)c2ccccc21 (stereo not drawn),–,"inconclusive [rising, partial curve]"
Cc1cc(SCc2ccc(F)cc2)nc(=O)[nH]1,–,"inconclusive [rising, single point]"
Cc1nc(CCN2C(=O)c3ccccc3C2=O)cs1,–,"inconclusive [rising, partial curve, poor fit]"
CCOC(=O)c1cnc(SCC(=O)c2ccc3c(c2)OCCO3)nc1N,–,"inconclusive [rising, single point]"
COc1cc(/C=C2/C(=O)NN(c3cccc(F)c3)C2=O)ccc1OC(=O)c1ccco1,–,"inconclusive [rising, single point]"
Cc1ccc(CSC2=Nc3sccc3C3=NC(=O)CN23)cc1,–,"inconclusive [rising, partial curve]"
Cc1noc(C)c1CSc1nnc(-c2c[nH]c3ccccc23)n1-c1ccc(Cl)cc1,–,"inconclusive [rising, single point]"
COc1ccc(-c2nc3ccccc3s2)cc1O,inactive: -21.8%,–
O=C(CSc1n[nH]c(-c2ccccn2)n1)Nc1ccc(F)cc1,inactive: 1%,–
Cc1cc(C)n(Cc2cccc(F)c2)c(=O)c1C#N,–,"inconclusive [rising, single point]"
COc1ccc(-c2nnc(SC(C)C#N)o2)cc1 (stereo not drawn),–,"inconclusive [rising, single point]"

Structure (SMILES),activation,Potency
CC(=O)c1c(C)[nH]c(C(=O)OCCOc2ccccc2)c1C,inactive: 0.693%,–
CNC(=O)CN(c1ccc(OC)cc1)S(=O)(=O)c1ccc(F)cc1,–,"inconclusive [rising, partial curve]"
CCNc1nc(Sc2ccc(C)cc2)cc(C(F)(F)F)n1,inactive: 4.71%,–
CC(C)CCOP(=O)(c1ccc(N(C)C)cc1)C(O)c1ccccc1F (stereo not drawn),–,"inconclusive [rising, single point]"
COc1ccc(F)cc1C(=O)C1CCCN(Cc2cccn2-c2cccnc2)C1 (stereo not drawn),–,active: 35.5 µM
O=C(NCc1ccccn1)c1c(O)c2c([nH]c1=O)CCCC2,–,active: 3.16 µM
O=C1CC(Cc2ccccc2)C(=O)N1Cc1ccco1 (stereo not drawn),–,active: 28.2 µM
Cc1ccccc1NC(=O)N1C2CCCC1CC(NC(=O)C(C)(C)C)C2 (stereo not drawn),–,"inconclusive [rising, full curve, poor fit]"
COc1ccccc1NS(=O)(=O)c1cc(NC(=O)c2[nH]c(C)c(C(C)=O)c2C)ccc1N1CCOCC1,–,active: 15.8 µM
CC(=C/C(=O)O)/C=C/c1ccco1,–,"inconclusive [rising, single point]"
C=CCn1c(=O)c2c(nc3n2CCCN3Cc2ccccc2)n(C)c1=O,–,"inconclusive [rising, partial curve]"
CC(C)COCc1ccc(O)c2ncccc12,inactive: -0.716%,–
CC1(OC(=O)C2CCCC2)C(=O)C=C2C=C3CCCN3C=C2C1=O (stereo not drawn),"inactive: 2.54% [at 11.5 µM, 0% is enzyme alone, no compound]",–
O=[N+]([O-])c1cc2c(c(CSc3nnnn3-c3ccc(O)cc3)c1)OCOC2,–,"inconclusive [rising, partial curve]"
O=C(COc1ccccc1)NC(NC(=S)Nc1ccccc1C(=O)O)C(Cl)(Cl)Cl (stereo not drawn),inactive: -1.3%,–
COc1ccc(-c2ccc(=O)n(CC(=O)Nc3cccc(O)c3)n2)cc1OC,–,"inconclusive [rising, partial curve]"
CC1(C)NC(=O)N(CC(=O)Nc2cc(S(=O)(=O)N3CCOCC3)ccc2N2CCOCC2)C1=O,–,"inconclusive [rising, single point]"
CC(=O)Nc1ccc(S(=O)(=O)Nc2nnc(C(C)(C)C)s2)cc1,–,active: 15.8 µM
CC(=O)c1c(C)[nH]c(C(=O)NCc2ccccc2Cl)c1C,–,active: 7.94 µM
CN(C)C=Nc1c(C(=O)c2ccccc2)sc2nccc(N(C)C)c12,inactive: 4.41%,–
N#Cc1cc2cc3c(cc2nc1N1CCCCC1)OCCO3,–,"inconclusive [rising, single point]"
O=C(COc1ccc(Br)cc1CNC1CCCCC1)NCCc1ccccc1,–,"inconclusive [rising, single point]"
Cc1nc2cc(NCc3ccccc3O)ccc2n1Cc1ccccc1,–,active: 5.01 µM
COC(=O)CCC(=O)Nc1cc(S(=O)(=O)Nc2ccc(Cl)cc2)ccc1N1CCOCC1,inactive: -2.24%,–
